Source: PMC11913770
No constants are given. Whether binding was seen depends on the method and setting. In cells and extracts the contact can be indirect. Some binding calls cover weakened binding; strength is not graded here. Sequences can lack the tags named with a protein.

Sequences of proteins named here, by UniProt entry; tags and fusion partners are left off.
UniProt O81283: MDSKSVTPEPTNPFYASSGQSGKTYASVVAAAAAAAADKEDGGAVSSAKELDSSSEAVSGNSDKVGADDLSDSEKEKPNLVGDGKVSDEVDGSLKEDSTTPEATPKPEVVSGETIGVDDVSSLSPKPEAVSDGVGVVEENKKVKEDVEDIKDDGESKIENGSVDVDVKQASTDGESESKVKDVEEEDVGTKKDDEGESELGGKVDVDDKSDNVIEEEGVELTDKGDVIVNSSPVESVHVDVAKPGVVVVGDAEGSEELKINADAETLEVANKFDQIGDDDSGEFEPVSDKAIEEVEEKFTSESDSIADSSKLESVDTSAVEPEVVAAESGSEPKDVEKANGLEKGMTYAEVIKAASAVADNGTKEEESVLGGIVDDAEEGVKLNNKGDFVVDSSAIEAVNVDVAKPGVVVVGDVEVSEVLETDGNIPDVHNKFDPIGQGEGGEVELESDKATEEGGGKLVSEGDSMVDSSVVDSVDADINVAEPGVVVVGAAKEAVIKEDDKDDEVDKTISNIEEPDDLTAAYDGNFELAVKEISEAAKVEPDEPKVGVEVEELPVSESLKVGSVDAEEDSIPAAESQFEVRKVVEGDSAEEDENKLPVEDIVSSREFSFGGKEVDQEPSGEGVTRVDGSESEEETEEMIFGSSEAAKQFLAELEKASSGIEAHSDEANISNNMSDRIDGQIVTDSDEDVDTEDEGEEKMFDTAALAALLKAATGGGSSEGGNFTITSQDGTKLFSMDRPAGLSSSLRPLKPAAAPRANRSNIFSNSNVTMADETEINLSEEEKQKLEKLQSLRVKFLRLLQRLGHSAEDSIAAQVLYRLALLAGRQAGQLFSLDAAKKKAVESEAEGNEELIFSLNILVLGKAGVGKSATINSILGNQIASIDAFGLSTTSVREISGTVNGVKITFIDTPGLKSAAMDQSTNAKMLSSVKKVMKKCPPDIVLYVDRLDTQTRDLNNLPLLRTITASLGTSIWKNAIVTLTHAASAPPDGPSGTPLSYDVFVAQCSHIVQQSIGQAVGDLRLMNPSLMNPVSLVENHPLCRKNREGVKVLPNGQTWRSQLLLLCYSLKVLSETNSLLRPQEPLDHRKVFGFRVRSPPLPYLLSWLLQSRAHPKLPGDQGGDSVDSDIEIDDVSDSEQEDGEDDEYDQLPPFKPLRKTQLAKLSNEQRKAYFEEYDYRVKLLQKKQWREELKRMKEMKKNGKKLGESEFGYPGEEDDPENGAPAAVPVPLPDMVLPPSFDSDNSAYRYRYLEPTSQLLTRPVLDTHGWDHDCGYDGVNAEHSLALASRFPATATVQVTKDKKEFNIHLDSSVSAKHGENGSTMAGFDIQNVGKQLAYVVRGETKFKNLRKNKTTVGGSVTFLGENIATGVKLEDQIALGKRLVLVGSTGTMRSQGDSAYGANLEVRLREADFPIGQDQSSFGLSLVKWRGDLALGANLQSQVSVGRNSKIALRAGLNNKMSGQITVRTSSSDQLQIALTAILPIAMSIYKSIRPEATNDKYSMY

T1: SP1-YFP (Arabidopsis thaliana) (UniProt Q8L7N4)
T1 sequence: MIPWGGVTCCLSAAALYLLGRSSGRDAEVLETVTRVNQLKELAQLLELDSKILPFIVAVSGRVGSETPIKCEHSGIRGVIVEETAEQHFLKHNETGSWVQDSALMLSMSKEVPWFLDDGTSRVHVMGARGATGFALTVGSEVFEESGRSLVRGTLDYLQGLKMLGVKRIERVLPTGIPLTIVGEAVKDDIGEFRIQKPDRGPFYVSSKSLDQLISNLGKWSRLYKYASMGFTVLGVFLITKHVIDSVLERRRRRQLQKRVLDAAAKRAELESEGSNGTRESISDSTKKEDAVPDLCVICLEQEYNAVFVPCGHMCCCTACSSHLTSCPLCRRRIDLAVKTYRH

T2: SPL2-YFP (Arabidopsis thaliana) (UniProt Q9SYH3)
T2 sequence: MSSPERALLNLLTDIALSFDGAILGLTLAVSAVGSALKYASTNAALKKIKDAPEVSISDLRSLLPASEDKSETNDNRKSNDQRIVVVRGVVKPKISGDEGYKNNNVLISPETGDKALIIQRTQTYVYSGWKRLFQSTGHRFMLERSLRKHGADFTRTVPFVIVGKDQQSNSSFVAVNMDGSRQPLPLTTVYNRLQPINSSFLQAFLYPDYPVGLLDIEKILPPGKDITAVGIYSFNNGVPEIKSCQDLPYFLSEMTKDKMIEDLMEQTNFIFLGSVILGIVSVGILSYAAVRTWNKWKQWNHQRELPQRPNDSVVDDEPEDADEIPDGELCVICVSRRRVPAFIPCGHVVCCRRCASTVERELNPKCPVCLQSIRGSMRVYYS

T3: SP1-Myc (Arabidopsis thaliana) (UniProt Q8L7N4)
T3 sequence: T1 sequence

B1: Toc75 (protein, UniProt Q9STE8 141-818)
chain: DEEQSPDWDSHGLPANIVVQLNKLSGFKKYKVSDIMFFDRRRQTTIGTEDSFFEMVSIRPGGVYTKAQLQKELETLATCGMFEKVDLEGKTKPDGTLGVTISFAESTWQSADRFRCINVGLMVQSKPIEMDSDMTDKEKLEYYRSLEKDYKRRIDRARPCLLPAPVYGEVMQMLRDQGKVSARLLQRIRDRVQKWYHDEGYACAQVVNFGNLNTKEVVCEVVEGDITQLVIQFQDKLGNVVEGNTQVPVVRRELPKQLRQGYVFNIEAGKKALSNINSLGLFSNIEVNPRPDEKNEGGIIVEIKLKELEQKSAEVSTEWSIVPGRGGAPTLASFQPGGSVTFEHRNLQGLNRSLMGSVTTSNFLNPQDDLSFKLEYVHPYLDGVYNPRNRTFKTSCFNSRKLSPVFTGGPGVEEVPPIWVDRAGVKANITENFTRQSKFTYGLVMEEITTRDESSHIAANGQRLLPSGGISADGPPTTLSGTGVDRMAFLQANITRDNTKFVNGAVVGQRTVFQVDQGLGIGSKFPFFNRHQLTMTKFIQLREVEQGAGKSPPPVLVLHGHYGGCVGDLPSYDAFVLGGPYSVRGYNMGELGAARNIAEVGAEIRIPVKNTHVYAFVEHGNDLGSSKDVKGNPTAVYRRTGQGSSYGAGVKLGLVRAEYAVDHNNGTGALFFRFGERY
B2: Toc33 (protein, UniProt O23680 1-297)
chain: MGSLVREWVGFQQFPAATQEKLIEFFGKLKQKDMNSMTVLVLGKGGVGKSSTVNSLIGEQVVRVSPFQAEGLRPVMVSRTMGGFTINIIDTPGLVEAGYVNHQALELIKGFLVNRTIDVLLYVDRLDVYRVDELDKQVVIAITQTFGKEIWCKTLLVLTHAQFSPPDELSYETFSSKRSDSLLKTIRAGSKMRKQEFEDSAIAVVYAENSGRCSKNDKDEKALPNGEAWIPNLVKAITDVATNQRKAIHVDKKMVDGSYSDDKGKKLIPLIIGAQYLIVKMIQGAIRNDIKTSGKPL
B3: SPL1-HA (protein, UniProt Q94HV7 1-338)
chain: MIHLAGFTCCLGGVALYLLTRSTGRDIKSITRVYQLKDLEQLVEVESKVVPLIIAVSGDVGSETPIKCEHSYVLGVFLKRTAEQQVLRRNWRFSWVRNSTLMQPMTKEVPWYLDDGTGRVNVDVSQGELGLALTVGSDVFEKAEPVSLVQGALGYLKGFKILGVRHVERVVPIGTPLTVVGEAVRDGMGNVRIQKPEQGPFYVTYIPLDQLISKLGDLSRRFKYASMGLTVLGVILISKPVIEYILKRIEDTLERRRRQFALKRVVDAAARRAKPVTGGGTSRDGDTPDLCVVCLDQKYNTAFVECGHMCCCTPCSLQLRTCPLCRERIQQVLKIYRH
B4: Tic110 (protein, UniProt Q8LPR9 52-1016)
chain: SAASSDQLSVSTQAKNPGIHGNKKELTGLQPIVEKMTPPVRLATSAVVLAASLATGYGLGLRLAGSRNIAFGGAAVAGAAGGAVVYALNSAVPEVAAISLHNYVAEFEDPASVTKDDVEKIADRYGVNKGDEAFQAEICDIYCRYVTSVLPTEGQSLKGDEVAKIVKFKNALGIDEPDAAAMHMEIGRRIFRQRLETGEREGDAEQRRAFMRLVYVSALVFGDASSFLLPWKRVLKVTDAQVEIAIRENAKQLYAERLKLVGRDINVENLVDLRKSQLSFKLSDELAEDLFREHTRKVVVENISSALSILKSRTRAAKSLASVVEELEKVLEFNNLLVSLKSHSEADQFARGVGPISLIGDESDFERRMDDLKLLYRAYVTDALSGGRLEENKLVAMSQLRNILGLGKREAEAISVDVTSKSYRKRLANAVSSGDLEAQDSKAKYLQKLCEELHFDAQKAGAIHEEIYRQKLQQCVTDGELSDDNVAALLRLRVMLCIPQQTVDTAHAEICGTIFEKVVRDAISSGVDGYDAETRKSVRKAAHGLRLSRETAMSIASKAVRRVFTNYIRRARAAENRTDSAKELKKMIAFNTLVVTEMVADIKGESSDKAPEEDPVQEKEEDDEDEEWGSLESLRKTRPDKELAEKMGKPGQTEITLKDDLPDRDRIDLYKTYLLYCVTGEVTRIPFGAQITTKRDDSEYLLLNQLGGILGLSSKEIVNIHVGLAEQAFRQQAEVILADGQLTKARVEQLDELQKQVGLPQPQAEKVIKNITTTKMANAIETAVNQGRLNIKQIRELKEANVSLDSMIAVSLREKLFKKTVSDIFSSGTGEFDETEVYQTIPSDLSIDVEKAKRVVHDLAQSRLSNSLVQAVALLRQRNSKGVVLSLNDLLACDKAVPAEPMSWEVSEELSDLYAIYSKSDPKPAPEKVLRLQYLLGIDDSTATALREMEDGALSSAAEEGNFVF
B5: Stic1/Alb4 (protein, UniProt Q9FYL3 46-499)
chain: AQLGFRPDSFDFIKDHAENLLYTIADAAVSSSETFESVAGTTTKTTQSNDWFSGIANYMETILKVLKDGLSTVHVPYSYGFAIILLTVLVKAATFPLTKKQVESAMAMKSLTPQIKAIQERYAGDQEKIQLETARLYKLAGINPLAGCLPTLATIPVWIGLYRALSNVADEGLLTEGFFWIPSLAGPTTVAARQNGSGISWLFPFIEGHPPLGWPDTLAYLVLPLLLVFSQYLSIQIMQSSQSNDPAMKSSQAVTKLLPLMIGYFALSVPSGLSLYWLTNNILSTAQQVWLQKYGGAKNPVEKFTNLVTKEDKTQQIEKSFSEPLVQKSVSELKIPREKGGEKVTPECPKPGERFRLLKEQEAKRRREKEERQKAEAALSNQNTDKAHEQDEKSDTAIVAEDDKKTELSAVDETSDGTVAVNGKPSIQKDETTNGTFGIGHDTEQQHSHETEKR

Key:
[1] = molecular target: T1, SP1-YFP (Arabidopsis thaliana); experiment: co-IP; YFP fusions transiently expressed in Arabidopsis protoplasts (5 uM bortezomib for the last 4 hours) used as baits; total protein extracts incubated with GFP-Trap MA magnetic beads 1 hour at 4°C; four washes with 25 mM Tris-HCl pH 7.5, 150 mM NaCl, 10% glycerol, 1 mM EDTA, 0.5% Triton-X100; eluates immunoblotted for endogenous TOC, Tic110 and Stic1/Alb4 proteins
[2] = molecular target: T2, SPL2-YFP (Arabidopsis thaliana); experiment: as above
[3] = molecular target: T3, SP1-Myc (Arabidopsis thaliana); experiment: co-IP; coIP of SPL1 with SP1 in vivo (Figure S4A; legend not shown)

Molecule	binding [1]	binding [2]	binding [3]
Toc159 (from UniProt O81283 1-1503)	binds	binds	–
B1	binds	binds	–
B2	binds	binds	–
B3	–	–	binds
B4	no binding	no binding	–
B5	no binding	no binding	–
